Some of the results follow. At the low end of the ranking the order means little. Measured with an extract: partners may take part in the binding.
The sequences below were run against T1, HNF4alpha2 (COS-7 nuclear extract) (UniProt P41235) (assay: protein-binding microarray). Details: COS-7 nuclear extract on double-stranded Agilent 4x180k PBM; binding buffer, salt, pH and temperature not given; high values mean tight binding; double strand, one strand shown; sequences stand for … in …GCCTAGGGAGATTAGAGTATCGGTCGA.
T1 sequence: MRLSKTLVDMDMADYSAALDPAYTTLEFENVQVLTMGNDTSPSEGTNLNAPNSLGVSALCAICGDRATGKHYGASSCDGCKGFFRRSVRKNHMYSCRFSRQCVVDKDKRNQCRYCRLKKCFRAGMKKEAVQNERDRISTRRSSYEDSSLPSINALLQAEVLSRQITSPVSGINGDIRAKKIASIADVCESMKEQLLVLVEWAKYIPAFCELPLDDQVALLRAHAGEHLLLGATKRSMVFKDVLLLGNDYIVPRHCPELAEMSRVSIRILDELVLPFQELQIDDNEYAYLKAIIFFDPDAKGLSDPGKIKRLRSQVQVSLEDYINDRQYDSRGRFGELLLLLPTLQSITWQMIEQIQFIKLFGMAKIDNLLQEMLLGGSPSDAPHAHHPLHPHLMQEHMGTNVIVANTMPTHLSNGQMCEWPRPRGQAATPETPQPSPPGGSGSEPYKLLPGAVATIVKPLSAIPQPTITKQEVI

Sequence	binding signal (log2 normalized intensity)
TGTTAATGGCACTTCGTTTCAAAGTCCAGT	4.36
GACACCCGCTGGCGCCATCCAAAGGCCCGA	-1.01
GGAATGGGTATAACCTTCTTCTATGCCCTC	2.71
CAGTAAGTTTACTTCATCTAAGTGGGTCTA	1.24
GGTGGGTGGGAAGGGATCAGAAATTGATTT	-0.939
GCTGACCCTCTCCCCACCATTAACCCTACA	4.08
TAACATCTAAGATTGGCCCTGATAATCAAT	-0.652
GGGTCATGGAGCTGGAGGGCAAAGGTCAGA	7.97
AGTGCGATGATCATGGCTCACTGCACCTTG	0.629
AAGTTTCAGGCTATGAATGAAGTCTTTTCC	-0.256
AGAGACAGTGGAATCTACAGAATTCTCATG	-1.1
GGGATTTTCTCAGCTCTCCTCTGCCTCCAG	-0.806
AGAAAAAAATGAGTCACAATATCAGTCTTT	-0.0465
CAACTCTAGGAGCATGTCAAAAGCTAAATA	-1.17
CCTTCCCCTTTTTCTGTAAAGCTTTATTTT	1.33
CACCTTTACCCCCACTCTCCGCTGGCCTGT	4.08
CAGGGGAGAGAGGCAAGATCCGAAGTCTAG	-1.09
GTTTGATCACAAGACATGAAGATGCAGAAC	-0.962
AGCACACCTTTTTTTCATGCAAATTTCCGT	0.118
TCTTTGCTCTCCTCCTAATCACTGCCCTTT	3.94
TCCTAGAGAAAGGGGCTTAGGGAGGGTGAA	-1.23
CATTTCAAGGCTGGCTGAGTTCCCTTACAG	-1.14
ATCTTTTTACTGAGACTTAACAGTCACTCA	-1.08
TGACTTCTTTCGCTGTAGAAAGTGGTTTCA	0.584
AACCAAAGGAATTTAGCCTTTAACCTGCAG	1.55

Sequence	binding signal (log2 normalized intensity)
CGCTGCGGGTCACGTGCCGCTGCGGGTCAC	1.94
GGTGTGGTTAATGATTATGCCTCTGTGACC	1.94
TCTTTCAAGATAACAAGGCAAACTTTATCA	-0.854
AAGGGAGCAAAGTGCATTTGATAAGGGTAT	2.83
AGCGGGCTTAACTAGGAGCCTGCACGCCTG	-1.07
GGTAGGCAGCCTCTGAGATGGACTCCAGTG	2.01
TTGCCTAAGACATGCTCGCAGCTGCATAGA	-1.05
TGAAATTCTGGACTTTCAACAGAGGGCCTC	2.79
CTCACCTCTGGCCAGAGAGATGTCAGCCCA	0.201
CGGATGGCCGTGGGTGGAAGGAAAAGAGGA	-1.21
TGTACTGTAAACCTAGGTAGTGGACTCTAA	3.3
ATCAAAGGTAGATGAATCCACAAAGATAAG	-0.84
AATGACATTCAGCAACTGGGTTCAGTTACG	0.79
TCATTTACAGAATTTCTCAGATGCCAGCTA	-1.16
CTTTTGCCCCCAGGCTGCAAACCTGTACAG	3.51
ATTACTGCACCCCCTTCCCACCTGCTGTCC	4.84
GTTGATCTGGATGCCTCACCTGGCAAGGCA	-1.07
AAACTGGGCAAAGGTCAGGATCTCAGCCGC	4.52
GAAGATAGCTTTAAAGACCAAAGATCACAG	1.68
GGGCGTGTGTTAGACTTTGGACCTGGCCTG	7.25
GATCACCCAGGTCCAAGTCACTATCACCTC	-0.903
GGTTAAAAGGACAACCTTCGGCCGGGCACG	-1.07
GGGATTATGGCCGGCCCCTGGAATGCTGAG	-0.859
TGGACTATGTTTACACAGCCTTGTAGCAAG	-0.815
AAACATCTAATGAACTGATTAGAACATTAA	-1.12

Sequence	binding signal (log2 normalized intensity)
GGGCCCAGGGTTCTCTGTGACCTTTGGAAG	8.2
CATAAAAGTTCTCATGCTAAAAGTTGAATT	0.325
TCAAAGAATTTAACACCAGATAAACAGAAG	-1.13
ATCTGGAGGGGGCAGGACAGCAGGAGTGGG	-1.26
CCCAGTTCATAGGTCAATTCTTTGAAGTCT	3.28
AAGATCATTCCAGGAATGTTCAAGAAGTTC	0.138
GCCTGGCAAGACTTCTTCAGGGAGACTTCC	-1.18
GAGTGGGAGGCTGGGGCCTCCTGGCTGGGC	-0.741
TAACTGTATAACCTGGAACTGAAAGAGACC	-1.1
ACAGGGTGATCAGAGATCTAGGTGAGGGAT	-1.2
GACCCTGGGCTTAGTTGCTCGCTCCTTAGG	-1.16
TCTGCTTCCTGCTACAGAGCTCAGATTTCA	-1.15
TTGGACTCTGCCCTTGGCCTACTTAGTCCA	3.59
GAGGCCCTCTGTTGCTTCAAAGGGCAAAAG	1.52
TTGCTTTTCACAGTCGATCTTTGACCGCTG	5.44
ATCTAAGATTCCCCCTACCCTCAATATCTG	4.35
AGATACTCACCAGTGGGCCCAGAGCACAAC	-1
CTGTGACCATCTCCTTTTGTGAGAGGTCAA	2.88
TACAGGTGAATTTCAGTGCCCTTTGAGATT	3.3
TTGCCATTGTACAGGTTCCCTCATGATTTA	0.435
ATACGATAATGTCAAACATCTTATATCAAC	0.675
TTGCCTTGTTTGTTTTGAGGGTTAAAGGAG	2.02
TGCCCTGGATCTTGAAGCAGAAAACCACTG	-1.15
AAGCATACAGATTACATCTCCAGCTTATCT	-1.07
CATTCTGCTGCTCTTTAATCCTAATAATCC	-0.264

Sequence	binding signal (log2 normalized intensity)
AATCCAGACACTTTGGCTCCAGAGTCCACA	2.2
CTTGAAAGTAAGCAGACACTGAAAGATGGT	-0.188
GTTGCAAATTATTACTCCCACCGTGTGTGC	1.03
GAAGAATGGAATTGCCATTGACTGAGATAG	-0.94
CTCGCTCGCCCGAGCGCTGCTTCTCGTCCC	-1.11
GGGACCAAGGGTCAGTTCATTAAAAAAAAA	1.57
ACATACAACCATCAAAGGTCACTTTACAGA	2.46
GCTTGAGGCCAGCTCATAGGGATCAGATAA	-1.16
TCCAAATGATAATGCCAAGGACTGAAAGAA	-1.02
CCTGGGCTGGAAAGGCCACCACAAACCCTT	-1.13
CCATTTTGCAATTGACAAATGGCTTGTGCT	-1.26
AAAATAGGGTAGTTTGGAGATGCCGTTAAG	-0.322
GGACTTTACACAGACCTTTACCCACGGTCA	2.26
CCTCCCAGAGCATTGTTTATTGTTGCTGAT	1.82
CGCGTCGAACTAGCTTGGTGCAGGGGCGGG	-1.07
CATGTAACTGCTATTGGTTGTCAGACTGGT	1.95
CACATACACCTGCGTGTACTAAGGTCTTAA	1.12
CTTCCATTGTGATTCCTGTGATACCTTCTT	1.89
GCTACTGTGGTTCCCAAGAAGAGCCCAGAC	-1.12
GACTGATAAGGCTAAGTGGAGGATTTGGGT	-0.887
GCACAGGGTTGAGTGGTGACTGAAGTCCAA	2.02
CCACGCACTCGCCTGACTCCCTGACGCCAT	-1.12
CTAAAGTCCAAAGTCTCAACTAAGTGTTAT	4.29
TTTGTGTGTTTAATGTTTTCATTCTGATTT	1.32
AGGAGAATCGCTTGAACCCAGGGGACGGAA	-1.16

Sequence	binding signal (log2 normalized intensity)
AAACGTATGACTTTGGAGCACTCATTCCTA	-0.815
GAGTGTCCTGCCCCCTGGAGGAGTGAGGGA	1.34
AGCAAGTTTTATATGAAAACAAAGGAAACC	-1.08
CAGAAGAAACATGCGATACTTGACCTGCAA	2.25
CTCAGGAACTTTGTTTGTGTTTCCCTCCCT	2.83
ATGCAACTTTTAATCAGAGCAGTTCAGCTC	-1.13
TTCCAGCCTCCTGCTCTGGGCTTTCTCTGC	-1.24
TTACACAAAATCGCCACTACAAAGGGAATC	-1.07
TTCAACTGTGTGAGCTGATCACACCATATC	-0.498
GTAAAAACAACTGCCACTTATTGTGTTATG	0.718
CCTCCTTCCGCGGACGTGTTCCCACAGTGC	0.803
TAGAAACAAGACAGAATGATTCTCAGAAAC	-1.11
AGCAAATCCCAATTCACTGACACAAATTAT	-1.04
CAAGCAGAACCTTGGAGGCGGCGGCTCCGG	-1.19
GAGGGGGACTGGAAGGGAGAGATAAGAAAA	-1.17
GGGGAGCAAAGGTTAGCAAGGGCCCCCACT	2.47
GACCCCCACTGCCTGCCTGCCAACTCCACG	3.33
TCTGACCTTTGGCATTGTGTTACGTCTGGT	3.71
GTTAAAGGAGATAATGGGTGTAAGATACCT	-1.09
AGACAAGCTCTGTTTGTTTTGTTACACATC	0.945
AGTCCTCTCTCGCGAGAGCCGAAGTCTCTC	-1.11
TACTGGACAGCCAGCTGGTAAATAAAGGAA	-1.02
GGCCATGTCTCAGCCCAAGATCAAAAGGCA	-1.14
CCAAGATGCTAAGGCAAGATCATTCCAGGA	-1.11
AGAGGTGAGACACGTGTGCCATGCCAAAGA	-1.02

Sequence	binding signal (log2 normalized intensity)
GGTCAGAAAAAGCTGACGCCCCACCCCCTC	5.94
TATTTGCTGAGGAAGACTTCATTCAGGTAG	0.263
CTCAAAGTTTTGTTATCTCTGCTTGCAATT	0.771
GACTGGTTCTTGGTCAGCTCCTGGGAGATG	0.875
GTATAGTGACTTCCTTCCAAAGGTCACAGT	4.85
TAGAAGGCAGAGAAAGATAGGAGATAAGGG	-1.2
ATGGGGCATGACTTGTTATCACCTGCTGGA	0.237
AGCTATGATAAAGGTTTGGGTTGGATTTGC	1.12
AAAGTTCAGGTTTCAAATACTCCAGTCATT	0.224
GGGGGTAAAGTGGATTGCTGGCCTTTTATC	0.814
CAAGGAAAGATAAATAGTGACAAATTGTAT	-0.0613
GAAGAATAGATTCCATAGATAAGAGCTGAG	-1.13
GAGACAGCTCCACAGCTGGACTTTGGCTGC	5.41
CTATTGCAGTAACGGCAGGGTTGTGCAGGA	0.453
CCCTGTAAGTCCAAACAAAATACAAACACG	-0.429
AGAGGTCGATCTGATCTTAAGTTGTACCTG	2.6
AGGAGGCACTGATAAGCGTATTTCAACCTT	0.384
GATAGCAAAATCAATAAATCACACGAAACA	-1.15
AAGAGGAGAAGAATTTACCCAACTCATCAG	-1.04
TGCAATGTTTCCAAACCCCTCGGGACCATG	-0.67

From paper PMC10726135
